# Laboratory results as given in patent US20240139156A1, “COMBINATION TREATING PROSTATE CANCER, PHARMACEUTICAL COMPOSITION AND TREATMENT METHOD” (KANGPU BIOPHARMACEUTICALS, LTD., priority 2017, published 2024).
# Test system: Vcap cells (androgen receptor (+) prostate cancer cells)
# Test: CTG cell proliferation assay (CellTiter-Glo), compounds alone or in combination
# Settings: for viability at 1 µM / viability at 10 µM: Homo sapiens, VCaP, 120 h, read-out: Survival rate of Vcap cells; for effect of tested compound in combination with the other therapeutic agents (prednisone, Galeterone, Abiraterone acetate, ODM-201): Vcap cell survival, without B001, summary in words
# [1] = 1 μM tested compound in combination with 1 μM Abiraterone acetate
# [2] = 1 μM tested compound in combination with 1 μM B001
# [3] = 1 μM tested compound in combination with 1 μM B001 and 1 μM Abiraterone acetate
# [4] = 1 μM tested compound in combination with 1 μM B001 and 1 μM Galeterone
# [5] = 1 μM tested compound in combination with 1 μM B001 and 1 μM ODM-201
# [6] = 1 μM tested compound in combination with 1 μM B001 and 1 μM prednisone
# [7] = 1 μM tested compound in combination with 1 μM B001 and 1 μM prednisone and 1 μM Abiraterone acetate
# [8] = 1 μM tested compound in combination with 1 μM B001 and 1 μM prednisone and 1 μM Galeterone
# [9] = 1 μM tested compound in combination with 1 μM B001 and 1 μM prednisone and 1 μM ODM-201
# [10] = 1 μM tested compound in combination with 1 μM Galeterone
# [11] = 1 μM tested compound in combination with 1 μM ODM-201
# [12] = 1 μM tested compound in combination with 1 μM prednisone
# [13] = 10 μM tested compound in combination with 1 μM Abiraterone acetate
# [14] = 10 μM tested compound in combination with 1 μM B001
# [15] = 10 μM tested compound in combination with 1 μM B001 and 1 μM Abiraterone acetate
# [16] = 10 μM tested compound in combination with 1 μM B001 and 1 μM Galeterone
# [17] = 10 μM tested compound in combination with 1 μM B001 and 1 μM ODM-201
# [18] = 10 μM tested compound in combination with 1 μM B001 and 1 μM prednisone
# [19] = 10 μM tested compound in combination with 1 μM B001 and 1 μM prednisone and 1 μM Abiraterone acetate
# [20] = 10 μM tested compound in combination with 1 μM B001 and 1 μM prednisone and 1 μM Galeterone
# [21] = 10 μM tested compound in combination with 1 μM B001 and 1 μM prednisone and 1 μM ODM-201
# [22] = 10 μM tested compound in combination with 1 μM Galeterone
# [23] = 10 μM tested compound in combination with 1 μM ODM-201
# [24] = 10 μM tested compound in combination with 1 μM prednisone
Compound,Survival rate of Vcap cells [1] [%],Survival rate of Vcap cells [3] [%],Survival rate of Vcap cells [4] [%],Survival rate of Vcap cells [5] [%],Survival rate of Vcap cells [6] [%],Survival rate of Vcap cells [7] [%],Survival rate of Vcap cells [8] [%],Survival rate of Vcap cells [9] [%],Survival rate of Vcap cells [10] [%],Survival rate of Vcap cells [11] [%],Survival rate of Vcap cells [12] [%],Survival rate of Vcap cells [13] [%],Survival rate of Vcap cells [14] [%],Survival rate of Vcap cells [15] [%],Survival rate of Vcap cells [16] [%],Survival rate of Vcap cells [17] [%],Survival rate of Vcap cells [18] [%],Survival rate of Vcap cells [19] [%],viability at 1 µM [%],viability at 10 µM [%],also measured
CNC(=O)CCCc1ccc(N2C(=S)N(c3ccc(C#N)c(C(F)(F)F)c3F)C(=O)C2(C)C)cc1F [AR2-3],74.1,47.0,45.2,47.4,51.7,57.7,56.0,61.9,75.8,79.9,78.6,61.4,45.283,40.6,40.1,42.3,40.7,51.9,73,57.5,"Survival rate of Vcap cells [2]: 52.695%; Survival rate of Vcap cells [20]: 51.9%; Survival rate of Vcap cells [21]: 54.5%; Survival rate of Vcap cells [22]: 61.8%; Survival rate of Vcap cells [23]: 65.4%; Survival rate of Vcap cells [24]: 60.4%; effect of tested compound in combination with the other therapeutic agents (prednisone, Galeterone, Abiraterone acetate, ODM-201): did not improve significantly"
CC1(C)C(=O)N(c2ccc(C#N)c(C(F)(F)F)c2)C(=S)N1c1ccc(OCC2(N)CC2)c(F)c1 [AR3-1],72.8,49.6,48.4,51.4,57.9,55.8,54.5,52.7,74.3,76.1,81.6,54.9,41.310,39.2,38.2,44.0,40.8,37.5,76.5,56.5,"Survival rate of Vcap cells [2]: 53.800%; Survival rate of Vcap cells [20]: 37.9%; Survival rate of Vcap cells [21]: 42.6%; Survival rate of Vcap cells [22]: 55.9%; Survival rate of Vcap cells [23]: 62.2%; Survival rate of Vcap cells [24]: 57.9%; effect of tested compound in combination with the other therapeutic agents (prednisone, Galeterone, Abiraterone acetate, ODM-201): did not improve significantly"
Nc1cccc2c1CN(C1CCC(=O)NC1=O)C2=O (stereo not drawn) [Compound B001],–,–,–,–,–,–,–,–,–,–,–,–,–,–,–,–,–,–,75.8,74.1,–
"C[C@]12CC[C@H](O)CC1=CC[C@@H]1[C@@H]2CC[C@]2(C)C(n3cnc4ccccc43)=CC[C@@H]12 [Galeterone, reference compound]",–,–,–,–,–,–,–,–,–,–,–,–,–,–,–,–,–,–,–,–,"Survival rate of Vcap cells (tested compound alone, 1 μM, 5 days): 79.7%; Survival rate of Vcap cells (tested compound alone, 10 μM, 5 days): 33.4%"
"C[C@]12C=CC(=O)C=C1CC[C@@H]1[C@@H]2C(=O)C[C@@]2(C)[C@H]1CC[C@]2(O)C(=O)CO [Prednisone, reference compound]",–,–,–,–,–,–,–,–,–,–,–,–,–,–,–,–,–,–,91.8,81.4,–
"CC(O)c1cc(C(=O)N[C@@H](C)Cn2ccc(-c3ccc(C#N)c(Cl)c3)n2)[nH]n1 (stereo partly drawn) [ODM-201, reference compound]",–,–,–,–,–,–,–,–,–,–,–,–,–,–,–,–,–,–,67.9,67.6,–
CNC(=O)c1ccc(N2C(=S)N(c3ccc(C#N)c(OC)c3)C(=O)C23CCC3)cc1F [AR2-2],74.3,47.4,43.6,47.4,50.5,46.4,46.2,46.9,70.9,75.0,79.5,66.9,41.974,38.8,38.7,41.8,37.3,35.6,65.7,57.9,"Survival rate of Vcap cells [20]: 35.2%; Survival rate of Vcap cells [21]: 40.5%; Survival rate of Vcap cells [22]: 65.2%; Survival rate of Vcap cells [23]: 68.1%; Survival rate of Vcap cells [24]: 64.0%; effect of tested compound in combination with the other therapeutic agents (prednisone, Galeterone, Abiraterone acetate, ODM-201): did not improve significantly"
CC1(C)C(=O)N(c2ccc(C#N)c(C(F)(F)F)c2)C(=S)N1c1ccc(OCC(O)CO)c(F)c1 (stereo not drawn) [AR3-2],70.8,46.9,47.9,50.3,56.4,57.0,56.2,56.3,73.4,71.7,77.1,53.9,42.044,38.4,40.5,44.6,39.3,43.4,76,62.8,"Survival rate of Vcap cells [2]: 51.248%; Survival rate of Vcap cells [20]: 45.7%; Survival rate of Vcap cells [21]: 49.8%; Survival rate of Vcap cells [22]: 58.6%; Survival rate of Vcap cells [23]: 62.5%; Survival rate of Vcap cells [24]: 57.6%; effect of tested compound in combination with the other therapeutic agents (prednisone, Galeterone, Abiraterone acetate, ODM-201): did not improve significantly"
"CC(=O)O[C@H]1CC[C@@]2(C)C(=CC[C@@H]3[C@@H]2CC[C@]2(C)C(c4cccnc4)=CC[C@@H]32)C1 [Abiraterone acetate, reference compound]",–,–,–,–,–,–,–,–,–,–,–,–,–,–,–,–,–,–,86.6,54.1,–
CC1(C)C(=O)N(c2ccc(C#N)c(C(F)(F)F)c2)C(=S)N1c1ccc(OCCO)cc1 [AR3-4],73.6,48.2,49.4,50.4,54.0,46.8,52.0,46.4,76.1,78.3,82.2,64.5,47.983,41.9,43.7,46.9,44.0,40.8,77,66.1,"Survival rate of Vcap cells [2]: 52.699%; Survival rate of Vcap cells [20]: 46.6%; Survival rate of Vcap cells [21]: 45.5%; Survival rate of Vcap cells [22]: 68.1%; Survival rate of Vcap cells [23]: 68.4%; Survival rate of Vcap cells [24]: 69.1%; effect of tested compound in combination with the other therapeutic agents (prednisone, Galeterone, Abiraterone acetate, ODM-201): did not improve significantly"
CNC(=O)c1ccc(N2C(=S)N(c3ccc(C#N)c(C(F)(F)F)c3F)C(=O)C2(C)C)cc1F [AR2-1],69.2,51.5,52.8,53.5,60.5,43.7,47.3,42.9,71.8,72.9,77.7,58.3,46.508,47.1,48.7,51.0,48.4,37.8,74,61.3,"Survival rate of Vcap cells [2]: 54.401%; Survival rate of Vcap cells [20]: 37.6%; Survival rate of Vcap cells [21]: 41.2%; Survival rate of Vcap cells [22]: 58.3%; Survival rate of Vcap cells [23]: 61.4%; Survival rate of Vcap cells [24]: 58.5%; effect of tested compound in combination with the other therapeutic agents (prednisone, Galeterone, Abiraterone acetate, ODM-201): did not improve significantly"
